Out of some 360,000 compounds screened, about 6,000 (1.7%) were called active. Inconclusive results, whose numbers are uncertain, are shown with a selection of clear calls. Calls follow the shape of the dose curve; as a rule, active = well fitted cell-killing curve with a large enough effect; inconclusive = small, poorly fitted or top-dose-only effect, or effect the other way; inactive = flat fitted curve, though single readings scatter. No potency is given beside an inconclusive call; the fits are too rough.
Assay: qHTS for induction of synthetic lethality in tumor cells producing 2HG: qHTS for the HT-1080-NT fibrosarcoma cell line;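 also: NT is the 2HG producing partner of a matched IDH1 knockdown line; nearly all actives have a fitted effect of over 55% in size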;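 as to activity, negative = less viability: 0% = DMSO-treated cells and -100% = media-only wells without cells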
Details: HT-1080-NT fibrosarcoma viability, CellTiter-Glo ATP luminescence, 48 h; activity, negative = less viability: at 46.1 µM (top of the series) unless noted
How it was run: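 Fibrosarcoma NT cells, 750 per well in 5% FBS RPMI, were exposed to compound for 48 hours. Viability: CellTiter-Glo luminescence.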
In the case of `O=C(NN=Cc1ccccc1O)c1cccc([N+](=O)[O-])c1`, the Potency is reported as active: 0.291 µM. In the case of `CCC(=O)Nc1ccc(N2CCN(Cc3ccccc3)CC2)cc1`, the “activity, negative = less viability” value is reported as inactive: -6.66%. In the case of `COc1ccc2c(c1)O[C@H](c1ccc3c(c1)OCO3)[C@@H](OC(=O)N[C@H]1CCCc3ccccc31)C2=O`, the Potency is reported as inconclusive [rising, single point]. In the case of `CC[C@@H](C)[C@@H]1CN([C@@H](C)CN2CCC[C@H]2CN2C(N)=NC[C@@H]2Cc2ccccc2)C(=N)N1CCc1ccc(Cl)c(Cl)c1`, the Potency is reported as inconclusive [cytotoxic, partial curve, poor fit]. In the case of `CCOc1ccc(C(=O)COC(=O)c2cc([N+](=O)[O-])ccc2N2CCOCC2)cc1`, the Potency is reported as inconclusive [cytotoxic, partial curve]. In the case of `CN(C)CCCn1c(SCC(=O)Nc2nc(-c3cccc(Br)c3)cs2)nc2ccccc2c1=O`, the Potency is reported as active: 20.6 µM. In the case of `CCC(c1ccccc1)C(CC)c1cc(O)c(O)c(O)c1` (configuration not stated), the Potency is reported as inconclusive [cytotoxic, single point]. For `COc1ccc(C(=O)c2ccc(OC)c(OC)c2OC)cc1`, the Potency was inconclusive [cytotoxic, partial curve]. In the case of `COC(=O)C1CCN(C(c2cc(OC)c(OC)c(OC)c2)c2sc3nc(C)nn3c2O)CC1` (configuration not stated), the Potency is reported as inconclusive [rising, single point]. In the case of `CC(C)c1nc2sc3ccccc3c(=O)c2c(=O)n1Cc1ccccc1`, the “activity, negative = less viability” value is reported as inactive: 0.833%. In the case of `CCOC(=O)c1c(C)[nH]c2c1-c1ccccc1C(=O)C2=O`, the Potency is reported as active: 2.91 µM. With `CCCCN(CCCNC(=O)CN1C(=O)COc2ccc(S(=O)(=O)N3CCC(C)CC3)cc21)Cc1ccccc1` the “activity, negative = less viability” value was inactive: 3.65%. For `O=c1c(-c2cccs2)nc2ccccc2n1C(c1ccccn1)c1nc2ccccc2[nH]1` (configuration not stated), the “activity, negative = less viability” value was inactive: -1.48%. For `Cc1oc(C)c2c(=O)ccc3c(c12)OC(N)=C(C#N)C3c1ccccc1Cl` (configuration not stated), the “activity, negative = less viability” value was inactive: 1.21%. In the case of `CCC(Oc1ccccc1)C(=O)NCCCN1CCOCC1` (configuration not stated), the Potency is reported as inconclusive [rising, full curve]. For `CC(NC(=O)c1ccccc1)C(=O)OCC(=O)c1c(N)n(C)c(=O)n(C)c1=O` (configuration not stated), the “activity, negative = less viability” value was inactive: 11.6%. In the case of `CCCc1nc2c3ccccc3ccn2c1Cc1cccc(Cl)c1`, the Potency is reported as active: 25.9 µM. For `COCCN(CCOc1cc(C)cc(C)c1)Cc1ccc(Cl)cc1`, the “activity, negative = less viability” value was inactive: 0.845%. In the case of `Cc1ccc(NC(=O)CCCC2CCCCC2)c(O)c1`, the Potency is reported as inconclusive [cytotoxic, single point]. With `CC(C)OCCCNc1ncnc2c1[nH]c1ccc(F)cc12` the Potency was inconclusive [cytotoxic, partial curve]. In the case of `Cc1c(O)ccc2cc(S(=O)(=O)c3ccccc3)c(=O)oc12`, the Potency is reported as inconclusive [cytotoxic, single point]. For `O=C(CN1C(=O)/C(=C\c2ccc(F)cc2)Oc2ccccc21)N1CCN(c2ccccn2)CC1`, the “activity, negative = less viability” value was inactive: 4.37%. In the case of `CCOc1cc(C)c(-c2onc(C(F)(F)F)c2-c2csc(C)n2)c(O)c1`, the Potency is reported as inconclusive [cytotoxic, single point]. For `CCC12CN3CC(CC)(CN(C1)C3c1c(O)ccc3ccccc13)C2=O` (configuration not stated), the “activity, negative = less viability” value was inactive: -2.3%. For `COc1ccc(C2=NN(CC(=O)NCC(OC)OC)C(=O)CC2)cc1`, the “activity, negative = less viability” value was inactive: 5.44%. With `Cc1ccc(N2CC(C(=O)NC3CCSC3=O)CC2=O)cc1` (configuration not stated) the “activity, negative = less viability” value was inactive: 4.64%. With `COc1c2occc2c(OC(C)=O)c2c(=O)cc(C)oc12` the Potency was inconclusive [cytotoxic, single point]. In the case of `NC(Cc1ccccc1)c1csc(NC(=O)Nc2ccccc2Oc2ccccc2)n1` (configuration not stated), the Potency is reported as inconclusive [cytotoxic, single point]. For `CCOc1cc(N2CCOCC2)c(OCC)cc1NC(=O)CC12CC3CC(CC(C3)C1)C2`, the “activity, negative = less viability” value was inactive: -24.2%. In the case of `Cc1cc(N2C(=O)C=CC2=O)c([N+](=O)[O-])cc1C`, the Potency is reported as inconclusive [cytotoxic, single point]. In the case of `COc1cccc(C2c3cc4c(cc3OC(C)(N3CCCC3)C2C)OCO4)c1O` (configuration not stated), the Potency is reported as inconclusive [cytotoxic, single point]. For `O=C(Cn1ncc2ccccc2c1=O)Nc1cccc(C(F)(F)F)c1`, the “activity, negative = less viability” value was inactive: -15.4%. With `S=C(NC1CC2CCC1C2)N1CCN(c2cccc(Cl)c2)CC1` (configuration not stated) the Potency was inconclusive [cytotoxic, single point]. For `CC(=O)N(c1cccc(Br)c1)c1nc(C)cc(C)c1C#N`, the “activity, negative = less viability” value was inactive: 3.45%. With `CCSc1cnn(-c2ccccc2)c(=O)c1Cl` the Potency was inconclusive [cytotoxic, single point]. For `CCCNC(=O)c1ccc(N2CCC3(CC2)CC(c2cccc(Br)c2)=NO3)c(NC(=O)c2ccccc2)c1`, the “activity, negative = less viability” value was inactive: -6.28%. In the case of `NC(=O)C1CCN(C(=O)COc2ccc(Nc3ccccc3)cc2)CC1`, the “activity, negative = less viability” value is reported as inactive: 2.76%. In the case of `Fc1cccc(Cl)c1/C=C/c1cnc2ccccc2n1`, the Potency is reported as inconclusive [cytotoxic, partial curve, poor fit]. For `Cc1occc1C(=O)N/N=C/C=C/c1ccc(N(C)C)cc1`, the Potency was inconclusive [cytotoxic, single point]. For `CCCCN=CC1=C(O)C(C(=O)OC)C(C)(C)CC1=O` (configuration not stated), the “activity, negative = less viability” value was inactive: -0.738%. In the case of `CC1(C(=O)NS(=O)(=O)c2ccccc2Cl)CCN1C(=O)Cc1cccs1` (configuration not stated), the “activity, negative = less viability” value is reported as inactive: 13.3%. With `COc1cccc(/C=N/NC(=O)C(=O)N2CCCC2)c1O` the Potency was inconclusive [cytotoxic, single point]. For `CC(=O)Nc1ccc(Oc2sc(C(=O)c3ccccc3)c(N)c2C#N)cc1`, the Potency was inconclusive [cytotoxic, partial curve]. In the case of `O=C(CC[C@H]1O[C@@H](n2ccc(=O)[nH]c2=O)[C@H](O)[C@@H]1O)N[C@@H](Cc1ccccc1)C(=O)NCC1CCCO1` (some centres not stated), the Potency is reported as inconclusive [rising, single point]. With `CCOC(=O)c1c(C)[nH]c(C(=O)C(C)OC(=O)c2cccc(OCc3c(C)noc3C)c2)c1C` (configuration not stated) the “activity, negative = less viability” value was inactive: -15.4%. In the case of `Cn1ccnc1COc1ccc(C=O)cc1`, the “activity, negative = less viability” value is reported as inactive: 8.53%. In the case of `CCOc1ccc(CCN2C(=O)C(=O)N([C@@H](Cc3ccc(O)cc3)CN3CCC[C@@H]3CN3C(=O)C(=O)NC[C@@H]3Cc3ccccc3)C[C@@H]2Cc2ccccc2)cc1`, the Potency is reported as inconclusive [cytotoxic, single point]. For `Nc1ccc2c(c1)C1(CCC2)NC(=O)NC1=O` (configuration not stated), the “activity, negative = less viability” value was inactive: -0.49%. With `Nc1nc(SCc2ccccc2[N+](=O)[O-])c2ncn(Cc3ccccc3)c2n1` the Potency was inconclusive [cytotoxic, partial curve]. For `CN(C)S(=O)(=O)N1CCC(Oc2cccc(C(=O)NC3CCCCCC3)c2)CC1`, the Potency was inconclusive [cytotoxic, partial curve]. With `COC(CNC(=O)c1cn(C)c2ccc(S(=O)(=O)N(C)C3CCCCC3)cc2c1=O)OC` the Potency was inconclusive [cytotoxic, partial curve]. With `CCCCNS(=O)(=O)c1ccc2nc(SCC(=O)Nc3cccc(F)c3)[nH]c2c1` the Potency was inconclusive [cytotoxic, single point]. For `O=S(=O)(C/C(=C/CO)S(=O)(=O)c1ccccc1)c1ccccc1`, the Potency was active: 7.08 µM. With `Cn1cnc(Sc2ncnc3nc[nH]c23)c1[N+](=O)[O-]` the Potency was inconclusive [cytotoxic, full curve]. In the case of `COc1cccc(NC(=O)Nc2nnc(-c3ccccc3SCc3ccccc3)s2)c1`, the Potency is reported as inconclusive [cytotoxic, partial curve]. For `CC(=O)Nc1ccc(NC(=O)C(C)OC(=O)CCc2c[nH]c3ccccc23)cc1` (configuration not stated), the “activity, negative = less viability” value was inactive: 0.2%. In the case of `Cc1onc(-c2ccccc2)c1NC(=O)N(CCC(=O)O)Cc1ccccc1`, the “activity, negative = less viability” value is reported as inactive: 19%. For `CN1CCN(c2ccccc2NC(=O)c2ccc(-c3ccccc3)cc2)CC1`, the Potency was inconclusive [cytotoxic, single point]. In the case of `COc1cccc(C(=O)NCCSc2c(C)[nH]c3ccccc23)c1OC`, the Potency is reported as inconclusive [cytotoxic, single point]. In the case of `CS(=O)(=O)Nc1ccccc1C(=O)Nc1cc(Cl)cc(Cl)c1`, the Potency is reported as inconclusive [cytotoxic, partial curve, poor fit]. In the case of `CC(=O)OCC(=O)C1(O)CCC2C3CCC4=CC(=O)CCC4(C)C3C(O)CC21C` (configuration not stated), the Potency is reported as inconclusive [rising, full curve]. With `O=C(c1cccs1)c1no[n+]([O-])c1C(=O)c1cccs1` the Potency was active: 18.4 µM. For `COc1cc(NCCCCCCCN)c2ncccc2c1`, the “activity, negative = less viability” value was inactive: -9.35%. In the case of `CCCOC(=O)/C(=C\c1ccc([N+](=O)[O-])o1)NC(=O)c1ccccc1`, the “activity, negative = less viability” value is reported as inactive: -10.5%. In the case of `CCCCOc1ccc(S(=O)(=O)Nc2cc(OC)ccc2OC)cc1`, the Potency is reported as inconclusive [cytotoxic, single point]. With `CCOc1ccc(/C=C2\SC(=S)N(CCC(=O)N(CCO)c3ccccc3)C2=O)cc1` the Potency was inconclusive [cytotoxic, single point]. In the case of `CCN(CC)C(=O)c1[nH]cnc1C(=O)NCc1ccc(CNC(=O)OC(C)(C)C)cc1`, the “activity, negative = less viability” value is reported as inactive: 2.78%. For `COC(=O)[C@@H](Cc1c[nH]c2ccccc12)NC(=O)C1CCCN(S(=O)(=O)c2ccc(C)cc2)C1` (some centres not stated), the “activity, negative = less viability” value was inactive: -1.01%. With `COc1cc(NC(=O)c2cc3ccccc3cc2O)c(OC)cc1Cl` the Potency was inconclusive [cytotoxic, single point]. For `COc1ccccc1CNC(=S)Nc1ccc2nc(N3CCN(C)CC3)cc(C)c2c1`, the Potency was inconclusive [cytotoxic, single point]. In the case of `Cn1c(N/N=C/c2cc3ccccc3nc2Cl)nc2ccccc21`, the Potency is reported as inconclusive [cytotoxic, partial curve]. With `COc1ccc2[nH]c(C(=O)N/N=C/c3ccc(OC)c(O)c3)cc2c1` the Potency was active: 0.58 µM.

From PubChem BioAssay AID686970 (National Center for Advancing Translational Sciences (NCATS), 2013)
Potency is read from the fitted curve at half-maximal effect; tags tell the direction and shape of the fitted curve.
